Measurements from PubChem BioAssay AID686978 (National Center for Advancing Translational Sciences (NCATS), 2013).
In all, about 420,000 compounds went through this assay and about 64,000 (15%) were called active. Inconclusive means that the source gave no clear call. Such entries were picked first, then a sample of the others. Calls come from the whole dose curve; as a rule, active = well fitted inhibition curve with a large enough effect; inconclusive = small, poorly fitted or top-dose-only effect; inactive = flat fitted curve, though single readings scatter. No potency is given beside an inconclusive call; the fits are too rough.

Assay: qHTS for Inhibitors of human tyrosyl-DNA phosphodiesterase 1 (TDP1): qHTS in cells in absence of CPT; note: nearly all actives have a fitted effect of over 55% in size
Conditions: DT40 Tdp1-/- hTDP1 cells, no CPT, ATP luminescence, 48 h; activity change, negative = growth inhibition: at 46.2 µM (top of the series) unless noted
How it was run: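 Compound effects on proliferation are scored in DT40 Tdp1-/-;hTDP1 cells in the absence of CPT. ATP levels (CellTiter-Glo luminescence) are recorded after a ≥48 hr, 37 °C incubation.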
% is set by controls: 0 for no effect and ±100 for the full control effect; potency is the fitted concentration of half-maximal effect; tags give direction and shape of the fitted curve.

Compound | Potency | activity change, negative = growth inhibition
Cc1nc(-c2ccc(F)cc2)c(CC(=O)Nc2cc(S(=O)(=O)N3CCCCC3)ccc2C)s1 | inconclusive [inhibitor, single point] | –
CC(C)[C@H](NC(=O)OC(C)(C)C)c1nnc(S(=O)(=O)Cc2c(F)cccc2Cl)o1 | active: 1.64 µM | –
COc1ccccc1-n1c(SCC(=O)Nc2ccc(C)cc2)nc(O)cc1=O | – | inconclusive: -33.3% [inhibitor]
CC(=O)Nc1cc(-c2ccc(C(=O)N3CCOCC3)cc2)cn2c(-c3ccc(F)cc3)cnc12 | active: 8.2 µM | –
Cc1cc2c(NC(=O)Nc3ccc(C(F)(F)F)cc3)cccc2nn1 | inconclusive [inhibitor, single point] | –
CC(=O)OCCNc1cc(Sc2nc3ccccc3[nH]2)c2nonc2c1[N+](=O)[O-] | active: 4.11 µM | –
O=C(CN1CCCC1c1ccc2c(c1)OCCO2)NC(=O)Nc1ccccc1 (stereo unspecified) | inconclusive [inhibitor, single point] | –
COCCNC(=O)C[C@@H]1C[C@H]2c3cc(NC(=O)Nc4ccc(F)cc4)ccc3O[C@H]2[C@H](CO)O1 | active: 8.2 µM | –
CC(Sc1nc2ncc(Cl)cc2[nH]1)C(=O)Nc1ccccc1[N+](=O)[O-] (stereo unspecified) | inconclusive [inhibitor, single point] | –
FC(F)(F)c1cc(CCN2CCNC[C@@H]2CC2CCCCC2)cc(C(F)(F)F)c1 | inconclusive [inhibitor, single point] | –
COc1ccc2oc(-c3ccccc3)c(C(=O)N(C)C)c2c1 | inconclusive [inhibitor, partial curve] | –
O=C(Nc1ccc(NC(=O)c2cccs2)cc1)c1ccc2c(c1)OCO2 | inactive | –
COc1ccc(CCNCC(O)COc2ccc(OC)cc2C(C)(C)C)cc1 (stereo unspecified) | inconclusive [inhibitor, single point] | –
COc1ccc(OCC(=O)NCCCn2ccnc2)cc1 | inactive | –
COc1ccccc1NC(=O)CSc1nc(O)c(Cc2ccccc2)c(=O)[nH]1 | inactive | –
COc1ccccc1CNC(=O)CCC1N=C2c3ccccc3N=C(SCC(=O)NCCc3ccc(OC)c(OC)c3)N2C1=O (stereo unspecified) | inconclusive [inhibitor, single point] | –
COc1ccc(-c2noc(N3CCC(C(=O)Nc4ccccc4Cl)CC3)n2)cc1 | inconclusive [inhibitor, single point] | –
Cn1nc(C(=O)Nc2ccc3c(c2)OCO3)c2ccccc2c1=O | inconclusive [inhibitor, single point] | –
CC(CSc1nnnn1-c1ccccc1)Cn1c(N2CCCC2)nc2c1c(=O)[nH]c(=O)n2C (stereo unspecified) | – | inconclusive: -36.2% [inhibitor]
COc1cccc(NC(=O)c2cc3c(=O)n(Cc4cccnc4)ccc3nc2C)c1 | inactive | –
O=c1cc(-c2ccccc2)[nH]c2nc3ccccc3n12 | active: 9.2 µM | –
CCc1ccc(-c2cc(C)no2)cc1S(=O)(=O)Nc1ccc(Cl)cc1 | inconclusive [inhibitor, single point] | –
Cc1onc(-c2ccccc2Cl)c1C(=O)NCCn1c(C)cc2ccccc21 | active: 29.1 µM | –

Compound | Potency | activity change, negative = growth inhibition
COc1ccc(C(=O)NC(=S)NNC(=O)c2c(-c3ccccc3)noc2C)cc1 | inconclusive [inhibitor, single point] | –
COc1ccccc1N(CC(=O)NC1CCCCC1C)S(=O)(=O)c1cccs1 (stereo unspecified) | inconclusive [inhibitor, single point] | –
COc1ccc(CNC(=O)CN(C)Cc2ccc(C(C)(C)C)cc2)cc1 | inconclusive [inhibitor, single point] | –
CN1C=CC(=O)[C@@H](OC(=O)Nc2ccc(Br)cc2)[C@H]1c1ccccc1Br | active: 14.6 µM | –
CC(=O)N/C(=N\c1nc(C)cc(C)n1)Nc1ccc(Cl)cc1Cl | inactive | –
COc1cc(CNC2CCCCCCC2)cc(Cl)c1OC | inconclusive [inhibitor, single point] | –
CC(C)CC(NC(=O)C1CCC(C)CC1)C(=O)Nc1ccccn1 (stereo unspecified) | inconclusive [inhibitor, single point] | –
CCOCCCNC(=O)CCc1ccc(S(=O)(=O)Nc2ccc(C)cc2)cc1 | inconclusive [inhibitor, partial curve] | –
Cc1ccc(C(O)c2ncc(-c3ccccc3F)[nH]2)cc1F (stereo unspecified) | inconclusive [inhibitor, partial curve] | –
CCOC(=O)c1c(C)n(-c2ccc(F)cc2)c2ccc(O)cc12 | inactive | –
O=C1C(Cl)=C(N2CCOCC2)C(=O)N1c1ccccc1 | inconclusive [inhibitor, partial curve] | –
CN(CCO)c1ccc(-c2nn(C)c(=O)c3ccccc23)cc1[N+](=O)[O-] | active: 8.2 µM | –
Cn1c(=O)c2sccc2n2c(CCCC(=O)N3CCCCC3)nnc12 | inactive | –
CCOC(=O)[C@]12CCC=C1N(Cc1ccco1)C(=O)[C@H](CC(=O)NCc1cccc(C(F)(F)F)c1)C2 | active: 25.9 µM | –
O=C(Nc1nnc(SCc2ccc(F)cc2)s1)c1cccnc1Cl | inactive | –
CCOC(=O)c1c(C)[nH]c(CCC(=O)NCc2ccccc2C)c1C | active: 13 µM | –
Cc1ccc(-c2nn3c(-c4ccccc4)nnc3o2)cc1 | inconclusive [inhibitor, single point] | –
Cc1ccc(N2CCN(C(CCc3ccccc3)C(=O)Nc3c(C)cccc3C)CC2)cc1 (stereo unspecified) | active: 14.6 µM | –
CCN1CCC(N(Cc2ccc3c(c2)OCO3)C(=O)Nc2ccccc2OC)CC1 | inconclusive [inhibitor, single point] | –
CN(Cc1ccccc1)C(=O)CCNC(=O)Cn1cnc2ccccc2c1=O | inactive | –
COCC(=O)Nc1nc(-c2ccccc2)c(C)s1 | inactive | –
COc1ccc(N2C(=O)CCC(C(=O)N3CCC(C(N)=O)CC3)C2c2ccc(F)cc2)cc1 (stereo unspecified) | inactive | –
CCOC(=O)C1CCCN(C(=O)c2cc(CN3C(=O)c4ccccc4C3=O)ccc2OC)C1 (stereo unspecified) | inconclusive [inhibitor, single point] | –
